In all, about 150,000 compounds went through this assay and about 540 (0.36%) showed an effect of 50% or more. The list shows a part of the results.
test system: Plasmodium falciparum; assay: Primary screen in NF54 nanoGlo assay, in single point, at 2uM, 72h; a lower Z score goes with more inhibition; type: functional, Erythrocyte; conditions: timepoint 72 hour

Row | SMILES | % Inhibition [%] | Z score
1 | CCCN1CCC[C@H]1C(=O)NCc1cccc(NC(=O)c2ccco2)c1 | -11 | 1.39
2 | Cc1ccccc1CC(C)(C)NC(=O)[C@H]1CC12CCNCC2 | 3 | -0.5
3 | CC[C@H](Oc1ccc(=O)n(-c2cc(Cl)ccc2C)n1)C(=O)NCCOC | -15 | 2.25
4 | CCc1ccccc1NC(=O)c1[nH]c2cc(C)sc2c1CN1CCOCC1 | -16 | 1.55
5 | O=C(c1cnc2[nH]cnc2c1)N1CC[C@H](C(F)(F)F)C1 | -7 | 1.2
6 | COc1ccc(-c2nnc([C@H](C)N(C)Cc3ccccc3N3CCOCC3)o2)cc1 | -1 | 0.13
7 | CC(C)NC(=O)CCc1cc2n(n1)CCN(C(=O)[C@H]1CCCO1)C2 | 9 | -1.19
8 | Cc1ccc2c(c1)Oc1cc(Cl)c(S(=O)(=O)N3CC(C)OC(C)C3)cc1C(=O)N2 (stereo not drawn) | -13 | 1.91
9 | O=C([C@H]1CC12CCN(Cc1ccc(F)cc1F)CC2)N1CCN(Cc2ccccc2)CC1 | -2 | 0.23
10 | COc1cc(NC[C@H]2CN(C)CCN2C)nc(N)n1 | 2 | -0.46
11 | CN(CC(=O)Nc1cc(S(=O)(=O)N2CCOCC2)ccc1N1CCOCC1)Cc1cccs1 | -41 | 4.81
12 | O=C1NCCN1C(=O)N1CCc2sc(Cl)cc2C1 | 6 | -0.67
13 | Cn1nccc1CNS(=O)(=O)C1CCCCCC1 | -9 | 1.17
14 | Cc1ccc(-c2nc(CN3CCC[C@H](c4ccn(CCO)n4)C3)c(C)o2)cc1 | 9 | -1.16
15 | Cc1ccc2c(c1)[C@@H](NC(=O)NCCc1nnc(C)s1)CO2 | -13 | 1.28
16 | CCOC1CC(Cc2nc(-c3cccc(NC(=O)C(C)C)c3)no2)C1 (stereo not drawn) | 0 | 0.01
17 | O=C(Cn1cccn1)Nc1nc(C2CC2)cs1 | 0 | -0.07
18 | Cc1cc(N2CCNC(=O)C2)n2nc(C)cc2n1 | 5 | -0.99
19 | Cc1cccc(C)c1OCC(O)CN1CCCC1c1cnn(C)c1 (stereo not drawn) | -11 | 1.57
20 | Cc1ncncc1C(=O)NCc1cc(Cl)cc2c(C)c(-c3ccccc3)[nH]c12 | 1 | -0.17
21 | CCN1C(=O)c2ccccc2N2C(=O)CC[C@@]12C(=O)Nc1cccc(OC)c1 | 92 | -11.06
22 | COCCc1ccc(S(=O)(=O)NC2(c3ccc(Br)cc3)CCC2)cc1 | -6 | 0.74
23 | CCn1ncc2cc(C(=O)Nc3nc4ccc(F)cc4[nH]3)c(C)nc21 | -7 | 0.68
24 | O=C1N[C@@H](c2cccs2)Nc2ncccc21 | 1 | -0.08
25 | Cc1ccc([C@H]2CN(C(=O)c3ccc4nc(C)c(C)nc4c3)C[C@@H]2N(C)C)cc1 | -3 | 0.55
26 | CC1CC2(C)Oc3ccccc3C3OCC1(COC(=O)NC1CCCCC1)[C@@H](C)C32 (stereo partly drawn) | -8 | 1.03
27 | COC[C@H]1CN(C2CCC2)CC12CCN(C(=O)Cc1cccc(F)c1)CC2 | -5 | 0.62

Row | SMILES | % Inhibition [%] | Z score
28 | Cc1noc(C)c1C(C)C(=O)NCC(C)COCc1ccccc1 (stereo not drawn) | -11 | 1.2
29 | CCn1cnc2c(N3CCC(NCc4ccccc4)CC3)ncnc21 | -6 | 0.89
30 | Cc1cccc2c1CCN2C(=O)c1nc(=O)[nH][nH]1 | 15 | -1.78
31 | CN(C)C(=O)CN1CC[C@H](NC(=O)c2cc(-c3ccccc3)n[nH]2)[C@@H](O)C1 | 1 | -0.12
32 | C=CCC1(CC=C)CCCN1C(=O)CC(=O)Nc1ccc(C)cc1C | 7 | -0.94
33 | Cc1ccc(NC(=O)N2CC[C@]3(C2)c2nc[nH]c2CCN3C)c(C)c1 | -12 | 2.06
34 | COC1CC(C(=O)NCC2(OC)CCC(C(F)F)CC2)C1 (stereo not drawn) | 15 | -1.94
35 | O=S(=O)(c1ccccc1)N1CCC(O)(c2ccccc2)C2CCCCC21 (stereo not drawn) | -6 | 0.88
36 | Cc1ccc(NC[C@H]2CCN(Cc3cnc(C)s3)C2)nc1 | -4 | 0.65
37 | Cc1cnn(CC2CCCN2C(C)C(=O)NCC2CCCO2)c1 (stereo not drawn) | -3 | 0.24
38 | c1ccc2c(-c3nc([C@H]4CCOC4)no3)n[nH]c2c1 | -9 | 1.8
39 | Cc1nc(CC(=O)NS(=O)(=O)c2cccc(F)c2F)c(C)s1 | -8 | 0.79
40 | O=C(N[C@H]1CCn2nccc2C1)c1cc2ccccc2o1 | -16 | 2.48
41 | COc1cc2c(cc1Cn1cc([C@H]3CCOC3)nn1)CCC2 | -10 | 1.37
42 | CCOc1oc(C)nc1C(=O)NCc1nccs1 | -2 | 0.2
43 | CCN(CC)C(=O)c1csc(-c2ccc(OCc3ccccc3Cl)c(OC)c2)n1 | -9 | 1.19
44 | COCCN(CCOC)C(=O)Nc1ccc(Cl)cc1 | -4 | 0.6
45 | O=C(Cc1cn2c(n1)CCCC2)Nc1cc(C(F)(F)F)n[nH]1 | 4 | -0.54
46 | O=C(CC1CCCCC1)NC[C@@H](CO)Cc1ccc(F)cc1 | -7 | 1.08
47 | COc1ccc(C)nc1-c1cccc(OC)c1C(=O)N(C(C)C)C(C)C | -8 | 0.79
48 | O=C(Nc1ccc2c(c1)C(=O)N1CCC[C@H]1C(O)=N2)c1ccccc1F | -21 | 2.8
49 | Clc1cnccc1CN1CCO[C@H](c2cccnc2)C1 | -11 | 1.5
50 | CC(C)c1ccc(-c2nc(N3CCN(c4ccccc4)CC3)nc3nn(C)c(N)c23)cc1 | -15 | 1.9
51 | CC(=O)N1C[C@H]2CC[C@@H](C1)N(Cc1ccc(F)cc1Cl)C2 | -20 | 1.82
52 | O=C(c1cnc2sc3c(n2c1=O)CCC3)N1CCCCC1 | -8 | 1.12
53 | C=CCNS(=O)(=O)c1cc(F)c(Br)cc1OC | 1 | -0.06
54 | COc1cc(OC)c(S(=O)(=O)Nc2ccccc2)cc1S(=O)(=O)Nc1ccccc1 | -9 | 1.3

— ChEMBL document CHEMBL4888484, “Replenishing the malaria drug discovery pipeline: Screening and hit evaluation of the MMV Hit Generation Library 1 (HGL1) against asexual blood stage Plasmodium falciparum ,using a nano luciferase reporter read-out” (2022)
